In PubChem BioAssay (Tox21):
The inconclusive results got no clear call from the source; some entries with a clear call stand among them for comparison. For some assays here: Potencies beside an inconclusive call are fits to weak or partial responses and may not hold up. Activity calls are given as the source filed them. Calls come from the whole dose curve; as a rule, active = well fitted curve in the direction sought with a large enough effect in the repeat runs; inconclusive = weak or mixed curves; inactive = no such curve, though single readings can be large; an effect the other way counts as inactive or inconclusive.

Columns and labels:
[1] = Caspase-3/7 induction in CHO-K1 cells by small molecules, qHTS cell viability counter screen (AID 1346979); conditions: CellTiter-Fluor fluorescence, 17 h; series mostly up to 92.4 µM; note: nearly all actives have a fitted effect of over 35% in size; note: potency is the fitted concentration of half-maximal effect
Summary of the method: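 To flag cytotoxic compounds, treated CHO-K1 wild-type cells were given CellTiter-Fluor at 16hr and read fluorescently after 1hr at 37C; the caspase-3/7 luminescence was measured in these same wells.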

[2] = molecular target: Cytochrome P450 2D6 (Homo sapiens) (UniProt P10635); test: Cytochrome P450 Family 2 Subfamily D Member 6 (CYP2D6) small molecule antagonists: luciferase reporter qHTS assay (AID 1671196); conditions: P450-Glo CYP2D6 enzyme assay, luciferin luminescence, 1 h; series mostly up to 115 µM; note: nearly all actives have a fitted effect of over 50% in size; note: potency is the fitted concentration of half-maximal effect
Sequence of UniProt P10635 (P10635 whole entry, looked up): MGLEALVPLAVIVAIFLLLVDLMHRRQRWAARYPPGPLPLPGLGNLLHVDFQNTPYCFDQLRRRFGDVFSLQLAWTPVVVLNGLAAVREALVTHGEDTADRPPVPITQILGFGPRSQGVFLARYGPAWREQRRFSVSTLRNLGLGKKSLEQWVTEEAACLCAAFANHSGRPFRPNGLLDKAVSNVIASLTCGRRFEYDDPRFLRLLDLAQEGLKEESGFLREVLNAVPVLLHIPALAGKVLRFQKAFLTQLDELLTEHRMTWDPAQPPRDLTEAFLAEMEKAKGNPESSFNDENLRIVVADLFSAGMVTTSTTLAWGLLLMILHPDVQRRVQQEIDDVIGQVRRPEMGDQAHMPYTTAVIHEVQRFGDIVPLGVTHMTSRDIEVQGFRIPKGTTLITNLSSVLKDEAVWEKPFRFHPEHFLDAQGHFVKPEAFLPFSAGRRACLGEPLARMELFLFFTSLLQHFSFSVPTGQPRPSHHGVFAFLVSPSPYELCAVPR
Summary of the method: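 Luminescence (RLU), read 20 min after detection reagent, indicated CYP2D6 conversion of proluciferin to luciferin during a 1 h NADPH-dependent reaction at room temperature.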

[3] = molecular target: Cytochrome P450 2C9 (Homo sapiens) (UniProt P11712); test: Cytochrome P450 Family 2 Subfamily C Member 9 (CYP2C9) small molecule antagonists: luciferase reporter qHTS assay (AID 1671198); conditions: P450-Glo CYP2C9 enzyme assay, luciferin luminescence; series mostly up to 115 µM; note: nearly all actives have a fitted effect of over 50% in size; note: potency is the fitted concentration of half-maximal effect
Sequence of UniProt P11712 (P11712 whole entry, looked up): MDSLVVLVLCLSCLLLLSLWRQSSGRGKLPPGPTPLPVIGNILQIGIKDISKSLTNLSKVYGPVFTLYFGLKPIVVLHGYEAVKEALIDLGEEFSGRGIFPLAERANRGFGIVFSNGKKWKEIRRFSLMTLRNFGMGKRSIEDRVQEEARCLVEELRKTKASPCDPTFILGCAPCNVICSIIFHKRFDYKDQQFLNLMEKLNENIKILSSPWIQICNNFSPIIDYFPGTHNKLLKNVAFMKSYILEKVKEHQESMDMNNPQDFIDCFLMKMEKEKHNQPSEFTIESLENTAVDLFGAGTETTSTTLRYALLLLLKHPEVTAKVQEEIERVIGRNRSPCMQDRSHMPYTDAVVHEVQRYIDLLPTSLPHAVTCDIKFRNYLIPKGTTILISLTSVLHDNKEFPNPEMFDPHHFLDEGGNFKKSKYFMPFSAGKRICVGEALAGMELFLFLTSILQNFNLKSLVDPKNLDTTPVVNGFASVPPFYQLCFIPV
Summary of the method: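 Enzyme-substrate mix preincubated with compound 10 min at room temperature; reaction started with NADPH regeneration solution, 1 h 37C. Luminescent luciferin product read after 20 min detection reagent.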

[4] = molecular target: Cytochrome P450 2C19 (Homo sapiens) (UniProt P33261); test: Cytochrome P450 Family 2 Subfamily C Member 19 (CYP2C19) small molecule antagonists: luciferase reporter qHTS assay (AID 1671197); conditions: P450-Glo CYP2C19 enzyme, luciferin luminescence, 1 h; series mostly up to 115 µM; note: nearly all actives have a fitted effect of over 65% in size; note: potency is the fitted concentration of half-maximal effect
Sequence of UniProt P33261 (P33261 whole entry, looked up): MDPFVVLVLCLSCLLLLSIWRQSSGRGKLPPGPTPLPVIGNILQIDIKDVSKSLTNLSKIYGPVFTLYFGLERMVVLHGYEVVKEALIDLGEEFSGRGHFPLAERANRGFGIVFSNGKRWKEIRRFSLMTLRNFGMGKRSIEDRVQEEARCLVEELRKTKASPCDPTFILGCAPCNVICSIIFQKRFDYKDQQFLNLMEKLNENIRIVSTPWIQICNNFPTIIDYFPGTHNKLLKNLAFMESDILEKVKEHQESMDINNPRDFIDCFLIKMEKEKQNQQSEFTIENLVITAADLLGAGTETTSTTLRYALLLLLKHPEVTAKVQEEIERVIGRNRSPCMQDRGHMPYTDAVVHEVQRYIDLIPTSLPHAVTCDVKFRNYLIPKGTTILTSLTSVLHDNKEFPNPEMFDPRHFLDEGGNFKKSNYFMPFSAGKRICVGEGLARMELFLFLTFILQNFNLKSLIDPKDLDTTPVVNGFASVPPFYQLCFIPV
Summary of the method: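 Quantitative high-throughput screen of the Tox21 library using CYP2C19 with proluciferin substrate. Reaction: NADPH regeneration, 37C, 1 h, after 10 min compound preincubation at room temperature. Readout: luminescence.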

[5] = molecular target: Cytochrome P450 1A2 (Homo sapiens) (UniProt P05177); test: Cytochrome P450 Family 1 Subfamily A Member 2 (CYP1A2) small molecule antagonists: luciferase reporter qHTS assay (AID 1671199); conditions: P450-Glo CYP1A2 enzyme, luciferin luminescence, 1 h; series mostly up to 115 µM; note: nearly all actives have a fitted effect of over 50% in size; note: potency is the fitted concentration of half-maximal effect
Sequence of UniProt P05177 (P05177 whole entry, looked up): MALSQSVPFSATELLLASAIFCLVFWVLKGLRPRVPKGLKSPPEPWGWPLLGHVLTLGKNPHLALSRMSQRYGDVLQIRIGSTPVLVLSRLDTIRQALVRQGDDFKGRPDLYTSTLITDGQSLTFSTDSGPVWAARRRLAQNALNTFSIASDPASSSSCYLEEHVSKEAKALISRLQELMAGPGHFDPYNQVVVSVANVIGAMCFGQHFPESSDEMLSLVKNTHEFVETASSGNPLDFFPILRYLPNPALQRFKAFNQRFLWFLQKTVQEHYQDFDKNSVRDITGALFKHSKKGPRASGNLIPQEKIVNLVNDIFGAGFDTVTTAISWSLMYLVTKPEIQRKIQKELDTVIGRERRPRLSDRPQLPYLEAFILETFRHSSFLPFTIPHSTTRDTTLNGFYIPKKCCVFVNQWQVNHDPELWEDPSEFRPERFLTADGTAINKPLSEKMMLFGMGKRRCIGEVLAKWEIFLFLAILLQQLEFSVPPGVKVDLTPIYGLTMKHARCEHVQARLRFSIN
Summary of the method: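 CYP1A2 turnover of a luminogenic substrate was quantified after 1 h with NADPH regeneration at room temperature. Furafylline served as positive control.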

[6] = molecular target: Nuclear receptor subfamily 1 group I member 2 (Homo sapiens) (UniProt O75469); test: Human pregnane X receptor (PXR) activation by small molecules, qHTS assay (AID 1346985); conditions: DPX-2 HepG2 CYP3A4-luciferase, 24 h; series mostly up to 38.3 µM; note: nearly all actives have a fitted effect of over 40% in size
Summary of the method: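 DPX-2 cells (HepG2 co-transfected with a PXR response element and a CYP3A4-promoter luciferase construct) were seeded at 2,000 per well, rested 5 hr at 37C, then exposed to DMSO-dissolved compounds for 24 hr. Activation was read as luciferase luminescence.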

[7] = molecular target: Voltage-gated inwardly rectifying potassium channel KCNH2 (Homo sapiens) (UniProt Q12809); test: Human Ether-a-go-go-Related Gene (hERG) channel small molecule antagonists: fluorescence cell-based qHTS assay (AID 1671200); conditions: hERG-U2OS cells, FluxOR thallium flux fluorescence; series mostly up to 76.8 µM;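 note: hERG-expressing U2OS cells given a thallium stimulus after FluxOR II dye loading; nearly all actives have a fitted effect of over 50% in size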
Sequence of UniProt Q12809 (Q12809 whole entry, looked up): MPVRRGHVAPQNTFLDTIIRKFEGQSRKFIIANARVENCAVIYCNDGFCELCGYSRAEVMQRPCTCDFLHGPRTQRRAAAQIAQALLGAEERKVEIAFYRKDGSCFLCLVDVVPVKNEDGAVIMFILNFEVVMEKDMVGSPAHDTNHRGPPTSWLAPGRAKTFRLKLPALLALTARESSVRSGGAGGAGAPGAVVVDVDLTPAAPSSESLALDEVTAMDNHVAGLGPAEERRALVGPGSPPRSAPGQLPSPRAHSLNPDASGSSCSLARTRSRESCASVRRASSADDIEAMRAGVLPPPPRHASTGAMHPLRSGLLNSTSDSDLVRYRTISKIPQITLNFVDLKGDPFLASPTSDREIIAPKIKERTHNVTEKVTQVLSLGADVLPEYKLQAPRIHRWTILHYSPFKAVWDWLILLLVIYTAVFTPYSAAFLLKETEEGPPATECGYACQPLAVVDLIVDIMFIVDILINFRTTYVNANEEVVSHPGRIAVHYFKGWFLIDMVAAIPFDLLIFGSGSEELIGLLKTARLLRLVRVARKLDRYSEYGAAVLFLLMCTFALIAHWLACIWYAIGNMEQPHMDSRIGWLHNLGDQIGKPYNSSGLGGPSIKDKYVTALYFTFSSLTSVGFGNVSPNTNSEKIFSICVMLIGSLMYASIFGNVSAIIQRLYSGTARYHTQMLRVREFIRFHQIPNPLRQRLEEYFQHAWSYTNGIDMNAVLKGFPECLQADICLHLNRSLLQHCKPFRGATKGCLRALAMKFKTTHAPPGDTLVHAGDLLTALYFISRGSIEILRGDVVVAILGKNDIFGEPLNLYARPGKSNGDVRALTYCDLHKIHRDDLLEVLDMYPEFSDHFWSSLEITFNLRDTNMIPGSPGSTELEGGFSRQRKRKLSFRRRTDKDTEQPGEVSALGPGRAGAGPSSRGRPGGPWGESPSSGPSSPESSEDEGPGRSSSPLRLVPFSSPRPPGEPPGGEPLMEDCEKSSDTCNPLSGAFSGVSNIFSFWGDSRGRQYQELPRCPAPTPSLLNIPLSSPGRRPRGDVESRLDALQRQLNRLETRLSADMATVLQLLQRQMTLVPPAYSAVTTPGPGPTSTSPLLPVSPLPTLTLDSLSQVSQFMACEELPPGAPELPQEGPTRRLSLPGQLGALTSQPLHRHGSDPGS
Summary of the method: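 Measured: Tl+ flux via fluorescence (480/540 nm) in hERG-expressing U2OS cells after 1 h dye loading at room temperature.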
Tags give direction and shape of the fitted curve.

For CCCCCCOc1ccc(N)cc1, the Potency [1] was inconclusive: 77 µM [cytotoxic, single point], the Potency [2] was active: 35.6 µM and the Potency [3] was active: 22.4 µM.
With Oc1ccc(C(O)CNCCCCCCNCC(O)c2ccc(O)c(O)c2)cc1O (configuration not stated) the Potency [1] was inconclusive: 29.8 µM [cytotoxic, single point], the Potency [2] was inconclusive: 15.5 µM [inhibitor, partial curve] and the Potency [4] was “inactive”. The Potency [3] was inconclusive: 34.7 µM [inhibitor, partial curve] and the Potency [5] was inconclusive: 30.9 µM [inhibitor, partial curve].
For COc1cc(/C=C/C(N)=O)cc(OC)c1OC, the Potency [1] was “inactive” and the Potency [4] was “inactive”.
With COc1ccc(C(=O)N2CCN(CC(=O)N3CCOCC3)CC2)cc1 the Potency [1] was “inactive” and the Potency [4] was “inactive”.
With C[C@H]1O[C@@H](n2cc(F)c(=O)[nH]c2=O)[C@H](O)[C@@H]1O the Potency [1] was “inactive”, the Potency [2] was “inactive” and the Potency [3] was “inactive”.
For O=C(O)c1ccccc1-c1ccc(C(F)(F)F)cc1, the Potency [1] was inconclusive: 33.5 µM [rising, single point] and the Potency [2] was “inactive”.
For CC(C)(C)C1CCCCC1O (configuration not stated), the Potency [1] was inconclusive: 30.6 µM [rising, partial curve] and the Potency [4] was “inactive”.
For CC(=O)CC(c1ccc([N+](=O)[O-])cc1)c1c(O)c2ccccc2oc1=O (configuration not stated), the Potency [1] was inconclusive: 33.5 µM [cytotoxic, partial curve], the Potency [6] was “inactive” and the Potency [2] was active: 38.9 µM. The Potency [3] was active: 2.45 µM.
In the case of Cc1cc(C)c(C=O)c(C)c1, the Potency [1] is reported as “inactive”, the Potency [2] is reported as inconclusive: 63.3 µM [inhibitor, partial curve] and the Potency [4] is reported as inconclusive: 89.4 µM [inhibitor, single point]. For the same molecule, the Potency [3] was inconclusive: 31.7 µM [inhibitor, partial curve].
With COc1ccc(OC)c(N=Nc2c(O)ccc3ccccc23)c1 the Potency [1] was active: 21.7 µM, the Potency [2] was inconclusive: 15.9 µM [inhibitor, partial curve] and the Potency [4] was active: 10 µM. The Potency [5] was active: 0.894 µM.
In the case of FC(F)(F)C(Cl)(Cl)Cl, the Potency [1] is reported as “inactive” and the Potency [4] is reported as “inactive”.
With COc1ccccc1OC(=O)Oc1ccccc1OC the Potency [1] was “inactive”, the Potency [2] was inconclusive: 15.5 µM [inhibitor, single point] and the Potency [5] was active: 4.56 µM.
For CC(C)=CC1CC(C)CCO1 (configuration not stated), the Potency [1] was inconclusive: 68.6 µM [rising, partial curve, poor fit] and the Potency [2] was “inactive”.
In the case of Nc1cccc(S(=O)(=O)O)c1, the Potency [1] is reported as “inactive”, the Potency [2] is reported as active: 71.2 µM and the Potency [3] is reported as inconclusive: 56.6 µM [inhibitor, partial curve].
With O=C(Cl)c1cccc([N+](=O)[O-])c1 the Potency [1] was inconclusive: 42.1 µM [rising, partial curve] and the Potency [4] was inconclusive: 87 µM [inhibitor, single point].
With CSc1nnc(C(C)(C)C)c(=O)[nH]1 the Potency [1] was inconclusive: 68.6 µM [cytotoxic, single point], the Potency [2] was inconclusive: 79.6 µM [inhibitor, partial curve, poor fit] and the Potency [3] was active: 35.6 µM.
In the case of CC1=CCCC(C)(C)C12CCC(C)O2 (configuration not stated), the Potency [1] is reported as “inactive”, the Potency [2] is reported as inconclusive: 71 µM [inhibitor, partial curve, poor fit] and the Potency [5] is reported as inconclusive: 39.9 µM [inhibitor, partial curve, poor fit]. The Potency [7] was “inactive”.
For NC[C@H]1O[C@H](O[C@H]2[C@H](O)[C@@H](O[C@H]3O[C@H](CO)[C@@H](O)[C@H](N)[C@H]3O)[C@H](N)C[C@@H]2N)[C@H](O)[C@@H](O)[C@@H]1O, the Potency [1] was inconclusive: 3.77 µM [cytotoxic, single point] and the Potency [4] was inconclusive: 4.91 µM [inhibitor, single point].
In the case of CCCCCCCCOC(=O)CCCCCCCCC(=O)OCCCCCCCC, the Potency [1] is reported as “inactive” and the Potency [2] is reported as “inactive”.
With C=C(C)C(=O)OCCOP(=O)(O)O the Potency [1] was inconclusive: 75.7 µM [rising, partial curve, poor fit], the Potency [4] was inconclusive: 98.6 µM [inhibitor, single point] and the Potency [3] was “inactive”. The Potency [5] was “inactive”.
In the case of Cc1ncc([N+](=O)[O-])n1C, the Potency [1] is reported as “inactive” and the Potency [3] is reported as inconclusive: 70 µM [inhibitor, partial curve, poor fit].
For ClCCOCCOCCCl, the Potency [1] was “inactive” and the Potency [5] was inconclusive: 31.7 µM [inhibitor, partial curve].
